Experimental data published in PubChem BioAssay AID588579 (National Center for Advancing Translational Sciences (NCATS), 2011).
Several values for one entry are separate records, joined by “and”; a condition that tells them apart may be missing. Equal values may be shown once. Among all 400,000 compounds or so, about 2,200 (0.55%) were called active. The shares of active, inactive and inconclusive entries below differ from those in the screen. Calls follow the shape of the dose curve; as a rule, active = well fitted inhibition curve with a large enough effect; inconclusive = small, poorly fitted or top-dose-only effect, or another doubt; inactive = no such curve, though single readings can be large or run the other way. A potency beside an inconclusive call is a rough fit, not a confirmed value.

Biological target: DNA polymerase kappa (Homo sapiens) (UniProt Q9UBT6)
Assay: qHTS for Inhibitors of Polymerase Kappa
Conditions: purified Pol kappa, fluorescent DNA synthesis assay, 10 min; series mostly up to 107 µM; activity, negative = inhibition: at the top concentration
Summary of the method: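 First, compounds were pin-transferred onto 10 nM Pol kappa. After 15 min at room temperature, substrate was added to 50 nM final. Fluorescence was then measured kinetically at 0 and 10 min.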
% is scaled to controls: 0 for no effect and ±100 for the full control effect; potency is read from the fitted curve at half-maximal effect; tags tell the direction and shape of the fitted curve.

Sequence of UniProt Q9UBT6 (Q9UBT6 whole entry, looked up): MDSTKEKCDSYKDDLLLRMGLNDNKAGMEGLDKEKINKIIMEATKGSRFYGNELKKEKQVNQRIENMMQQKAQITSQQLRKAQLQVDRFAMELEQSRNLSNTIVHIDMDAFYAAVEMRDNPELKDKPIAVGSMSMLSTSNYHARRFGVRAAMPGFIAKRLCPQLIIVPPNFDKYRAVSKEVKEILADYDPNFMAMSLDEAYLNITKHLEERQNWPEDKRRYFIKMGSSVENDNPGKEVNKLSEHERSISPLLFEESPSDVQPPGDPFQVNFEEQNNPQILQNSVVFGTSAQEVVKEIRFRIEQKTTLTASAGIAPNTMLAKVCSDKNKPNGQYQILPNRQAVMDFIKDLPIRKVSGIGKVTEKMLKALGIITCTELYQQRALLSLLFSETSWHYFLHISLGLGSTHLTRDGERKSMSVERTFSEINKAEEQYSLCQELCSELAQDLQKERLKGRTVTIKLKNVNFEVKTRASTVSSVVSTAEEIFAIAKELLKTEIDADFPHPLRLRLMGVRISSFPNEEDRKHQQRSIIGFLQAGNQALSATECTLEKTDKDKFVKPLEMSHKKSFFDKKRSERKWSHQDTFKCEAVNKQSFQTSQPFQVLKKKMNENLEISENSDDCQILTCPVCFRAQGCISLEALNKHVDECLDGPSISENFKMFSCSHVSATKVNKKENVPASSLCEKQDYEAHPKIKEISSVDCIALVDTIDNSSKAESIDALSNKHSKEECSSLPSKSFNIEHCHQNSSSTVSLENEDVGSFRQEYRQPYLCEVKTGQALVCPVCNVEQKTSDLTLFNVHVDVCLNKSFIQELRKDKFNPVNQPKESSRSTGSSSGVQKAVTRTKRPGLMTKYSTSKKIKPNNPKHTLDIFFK

**Q.** Which Potency does the source give for `COc1ccc(-c2ccccc2[C@H]2[C@@H]3C=CC[C@@H](C)[C@@H]3C(=O)N2Cc2ccccc2)cc1` here?
**A.** inconclusive: 44.7 µM [inhibitor, partial curve, poor fit]

**Q.** For `COc1ccc(OC)c(/C=N/c2oc(-c3ccco3)c(-c3ccco3)c2C#N)c1`, which Potency is on record?
**A.** active: 79.4 µM

**Q.** With `O=C(/C=C/c1ccc(O)cc1)c1ccc(O)cc1O` as the molecule, how does the Potency read?
**A.** inconclusive: 89.1 µM [inhibitor, single point]

**Q.** With `O=c1ccc(NS(=O)(=O)c2ccc(Cl)cc2)cn1Cc1ccc(Cl)c(Cl)c1` as the molecule, how does the Potency read?
**A.** inconclusive: 89.1 µM [inhibitor, single point]

**Q.** Which Potency does the source give for `O=C1CCCC(O)=C1N=Nc1cccc(C(=O)O)c1` here?
**A.** active: 50.1 µM

**Q.** With `C/C(=N\Nc1ccc(C(=O)O)cc1)c1ccc2c(c1)Nc1ccccc1S2` as the molecule, how does the Potency read?
**A.** inconclusive: 89.1 µM [inhibitor, single point]

**Q.** For `O=C(/C=C/c1ccccc1Cl)Nc1ccc2c(c1)C(=O)NC2=O`, which Potency is on record?
**A.** inconclusive: 79.4 µM [inhibitor, partial curve, poor fit]

**Q.** With `COc1ccc(N)c2c1C(=O)c1ccccc1C2=O` as the molecule, how does the Potency read?
**A.** inconclusive: 44.7 µM [inhibitor, partial curve]

**Q.** For `CC(C)(Oc1ccc(Cl)cc1)C(=O)NC1=NN(c2ccccc2)C(=O)C1`, which Potency is on record?
**A.** inconclusive: 89.1 µM [inhibitor, single point]

**Q.** With `Cc1ccccc1C(=O)Nc1nnc(S(=O)(=O)N(C)Cc2ccco2)s1` as the molecule, how does the Potency read?
**A.** inconclusive: 100 µM [inhibitor, single point]

**Q.** How did the Potency turn out when `O=C(NN1C(=O)/C(=C/C=C/c2ccco2)SC1=S)c1ccccc1O` was run?
**A.** active: 3.98 µM

**Q.** `COc1cc2sc3cc(NCc4ccc(C)o4)ccc3c(=O)c2cc1OC` was tested. Which Potency did it give?
**A.** active: 79.4 µM

**Q.** Which “activity, negative = inhibition” value does the source give for `CCOC(=O)CN1C(=O)C2Cc3ccccc3CN2C1=S` (stereo not given) here?
**A.** inactive: 3.75%

**Q.** `Cc1ncc(CN2CCCC(C(=O)Nc3ccc(-c4ccco4)cc3)C2)cn1` (stereo not given) was tested. Which Potency did it give?
**A.** inconclusive: 89.1 µM [inhibitor, single point]

**Q.** For `O=C(NCc1ccc(F)cc1)c1cnc(N2CCCCC2)c2ccccc12`, which “activity, negative = inhibition” value is on record?
**A.** inactive: -10.4% [at 60.1 µM]

**Q.** For `O=C(NNC(=O)C1CC(c2cccs2)=NO1)Nc1ccc(Cl)cc1` (stereo not given), which “activity, negative = inhibition” value is on record?
**A.** inactive: -36.7%

**Q.** For `O=C(CSCc1ccco1)c1cccs1`, which Potency is on record?
**A.** inconclusive: 89.1 µM [inhibitor, single point]

**Q.** With `C=CCNc1nc(-c2cccc(OC)c2O)nc2ccccc12` as the molecule, how does the Potency read?
**A.** inconclusive: 89.1 µM [inhibitor, partial curve, poor fit]

**Q.** With `CCOC(=O)N1CCN(C(=O)c2cc(OC)c(OC)c(OC)c2)CC1` as the molecule, how does the “activity, negative = inhibition” value read?
**A.** inactive: 5.48%

**Q.** For `NC(=O)CCCCn1ccc(NC(N)=NCC(F)(F)F)n1`, which activity, negative = inhibition is on record?
**A.** inactive: -11.9% [at 19.4 µM] and inactive: -2.85% [at 19.4 µM]
